Assay results from the supplement of paper PMC12632987.
Whole data set: some 4,500 sequences, median “median log2 fold change of GCK-ALFA target abundance (FLAG IP / Myc IP barcode read proportion)” near 0.078, cut for the lowest 2% near -0.6. The list shows a part of the results.

B1: GBRAP_95_7068 (protein)
chain: SEEAEIAAALADTMALYLEAGLLEHAARDLVAIAEEAEAHPDLKIEFPATPEQLRRALRALAAIRPREEAIRVAEVLARHAADPEHRAALEETAAELRAE
B2: GBRAP_84_7007 (protein)
chain: SREQEILEITNKILEKGSIELKKKLLTYLILKNENKAATLALNYLLEEDPEAAVEALDEATEAYEEGKEEEVRKELLELAKKEGEEVYALVEELLELIDE
B3: GBRAP_150_3896 (protein)
chain: NLEELLTIADTHADILEGMIDSGKYDVTILKTLLKTTEQEIKEAPPEVAKLLTKAADALKKAIALLEAGAPQAEIDAELKKAADAYKEAAELLEKKIEEE
B4: GBRAP_160_4739 (protein)
chain: SARIDALVEEARATLLEALELSEGESPEERAAIFRGAAGEVLMDFMSDPSLSDEQEDAAAEILDELVAELVAAADASPEEKRAIVDEHMARLRDTLLALA
B5: GBRAP_117_2571 (protein)
chain: SAKLEKAEKEIKEFVEKVAERLEEMKELSEEERKKELEELEEETYELVKKLVEELGKEKTIDLFEEAIADLDAETYFKISVLFENAFSRIEEEEEEEEEE
B6: GBRAP_31_5502 (protein)
chain: MTVEEKEALLREYARLAREEGDVDAAVAAAHLIDQMRKAGHDEALKRIVKEFPDLAALLRAARARLEALAAAGNPTAKYILETSGATIDAVIAYLEALRA
B7: GBRAP_186_5384 (protein)
chain: EEEAEEEEDRLIDEYEAQGYRVIVSYIEGKSLEEIKESIARDADAVAALAEETGQKWALIVRITTKEEDAEAIRAYVDELNARYLAKTGVVVRAVIANSD
B8: GBRAP_52_6234 (protein)
chain: MEERMRELAREIVELVKAGKEEEARKLAKEVAETLNEEELRILVEEFAELARAARPEDLDAVWRAVEIMAEALEEAGRPEILADDLESRTAAAAVEVLAR
B9: GBRAP_160_4427 (protein)
chain: SATLEKAKKEIDEIFDETAEMMKGESAEQRIVLVRVAEGEVILELEELGLLTDEVDKVIDERFKAIADTIAANPDISDEELKAMLDAARDAILEELDKVS
B10: GBRAP_9_7110 (protein)
chain: KKELAKKVKEIIEDMREELLKVVSEELQPLVIELSQKILDTIDKMEKDPSVTKEELKETTLEMLKQMREELLKKANPEEQAGIETEIATAEWEIEEAYEE
B11: GBRAP_39_5644 (protein)
chain: EKEEEDELEYSYLLAVGAAAQYEKGWNDEELKEETIKRLKKLAEEHPEIKELLEKLLEVVENGDLEDVVAAYGIALLAEEGTPLEEIKEHIESFLNYKES
B12: GBRAP_128_3157 (protein)
chain: STEEVREETRRLLEEIRESDEEEAREIARELFALILTLSDEEAEAAVEVILELLPELSKEKLEILADVAREMRPEADPFKAELLAEVEVEALNEALELEE
B13: GBRAP_160_4091 (protein)
chain: SEKIEEIIEELDELAEETKEMIEGENIEERAIIVEGLGGDVIMLLFESGEVTDEVIDFADKEFDALVAKIKANPDLTLEEIKELIDETIEKIKEKIKEES
B14: GBRAP_26_5472 (protein)
chain: LEELFDEFREKLEKKLDELLDPELAAAAKAELDTLVYEAEEKLEKNKNDLEKQEKILEEFLKELGEALETLGVPEEKRKKILEVAKKLAKEILEKLKEKL
B15: GBRAP_53_6427 (protein)
chain: MEEKIKELKEKIEKLAEEATKADEAEAKKLTAEIGAALKELKAAGMPDEEITELVEKIARLFKEAGVPDSVLVALANSLAAMGLDDATAEVAEVIVEELE
B16: GBRAP_11_2847 (protein)
chain: KKEELEKIAKKADEVIKLIDKLIKEGTDNKKLREEVKKKLEELKKLVEKHLDESSKKLAEYAIEDLEEAEKDPENALEHLNNAKAFVRTLRGQVLLEIEE
B17: GBRAP_166_4871 (protein)
chain: SMEERLKKAKKEMLELIKEAAELNADEQVEKYIEIGEIIKKLKEEGLSEEEILKLIEEILKKAKEEGLDVKLLAGIIENVVGFDEEEIDKVEKILKEVLK
B18: GBRAP_83_6918 (protein)
chain: KEKIVVAGPADHADELADAVIDLTKEEGYEVDVEILARPEQRPKVLALVDRLAKAGIETRIEVLGFGMTEEEAAALRAEMEAIAAAHGVNIEVEVELLEE
B19: GBRAP_39_5638 (protein)
chain: SREEEAEETFDYLEALGAKLLSERGISLDELLEEEYKYAREAFKDDPELLAAIDELYELALKGDDTDKLAAAGAFSLVREGKSKEEVLEAVELLIYYLKS
B20: GBRAP_80_6770 (protein)
chain: MEERIEKVIKEIEEIDPEIAKLLERLIEVARELGVPMETILRLAEAILELAKIDKEKARKLVEEALKELEEALKEGDREAALAVLVDAISEALLEVEELE
B21: GBRAP_11_2709 (protein)
chain: KKEKIKELAKEAEKLAKEIKKLIKEGPKEEELKKLAKKVKELAEKAKELGVDQAVVDTLNIAAEELKKAIENPETVEEHLKNAAAAVAVAAGLLLLEAEE
B22: GBRAP_128_3200 (protein)
chain: VSPEAIAALRALADEVIATRTDEAIRAFAEAIAAALKAGKIDLDALEAIVAYLGKGLSSDDIARAMDALREALADVGPEYLATATGTLGEEIMEKEEEEE
B23: GBRAP_39_5652 (protein)
chain: EEEEEAELLFDYYEALAEGYMVEKNISEEELIERGRKLLEKIAKEHPEIAELVKELLKAMEEGDEETKLAAAGIALEAERGTPIEEIAEHIKKFLAYVKK
B24: GBRAP_139_3713 (protein)
chain: SKLEELVKEAKEIVKKYRDDIEKLAKKLAELISKADDEARLAIAEAAAKEMKDWSWEKWEKFIELLEKELKKLGLSEDDVLAIKGVMEAVYAKYAIEKEK
B25: GBRAP_137_3630 (protein)
chain: ATVEIEVEEYEDVVEITVTLKDAAKAEAVKELVLDVAHEHGALAVSVEVEEDGTLVVTVWVPREKAEAFLEALVRRLQTELGLRVRVRNLDTGEEEEFEP
B26: GBRAP_35_5604 (protein)
chain: SITDLLVETTLDYAEALTEGVDEWTPEQVLAHAKALLKLVEDLAADPNVTLEQVEKVIEEVKKLIEALEKRVKEDPSYQPALEVVKKALEILEKKRKELK
B27: GBRAP_14_3851 (protein)
chain: VEELVKAVERTAERTKELAAEVLPEHAEEVKEKIEELAEKIIEKIKKENLNKEEVAELMDEMAKELAAFIKARGFANDTEIAAIRAEIISEAALELDKIE
B28: GBRAP_35_5542 (protein)
chain: DSDTTIVEMLVNTMEDLVLALPDVDDETFIKLTKHLIDLAEDIVKEQPKDKELIERAIKILEEAIKIIKESSLPEETKKELIERLEKLKEELKKILEKVK
B29: GBRAP_160_4103 (protein)
chain: MEKIEELIEDFEEVFEEVLELKDEISADELVNFYDVEMSAVILEAKDELNLSDETVDELLEVRDEIAERLRENYDKSLEEIRRILEEGLERMKEVLEKHS

target: GABARAP, O95166; test: median log2 fold change of GCK-ALFA target abundance (FLAG IP / Myc IP barcode read proportion) (log2 ratio); each designed protein is fused to an ALFA-tag nanobody in HEK293 cells to bring the named protein to FLAG-tagged glucokinase (GCK); Myc marks an untargeted standard; higher = target protein stabilised (more abundant); settings: target protein: 3xFLAG-MCP-GCK-ALFA reporter; HEK293 landing pad (RPLP)
How it was run: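 The readout is target abundance, the per-binder median log2 ratio of FLAG to Myc barcode read proportions. It came from HEK293 landing-pad cells carrying a recombined ALFA-nanobody-fused binder library, induced with 2 μg mL^−1 doxycycline and transfected with a plasmid for a FLAG-tagged target and a Myc-tagged standard. After 48 h, lysates were immunoprecipitated with anti-FLAG and anti-Myc, and circular RNA barcodes were reverse transcribed, amplified and sequenced. Each barcode needed a proportion of at least 10^−7 in both replicates and each binder at least 3 barcodes per replicate, a pseudocount of 10^−6 was added, and the replicates were pooled.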

Sequence of GABARAP, O95166 (O95166 whole entry, the tested form may be a part): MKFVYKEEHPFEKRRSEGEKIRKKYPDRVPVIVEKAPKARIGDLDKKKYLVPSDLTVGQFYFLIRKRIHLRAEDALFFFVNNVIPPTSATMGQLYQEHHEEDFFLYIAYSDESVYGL

| Binder | median log2 fold change |
| --- | --- |
| B1 | 0.195 |
| B2 | -0.316 |
| B3 | 0.263 |
| B4 | -0.0595 |
| B5 | -0.0146 |
| B6 | 0.263 |
| B7 | -0.0488 |
| B8 | -0.139 |
| B9 | -0.348 |
| B10 | 0.16 |
| B11 | 0.118 |
| B12 | 0.00897 |
| B13 | -0.254 |
| B14 | 0.291 |
| B15 | 0.387 |
| B16 | 0.116 |
| B17 | 0.344 |
| B18 | 0.109 |
| B19 | 0.2 |
| B20 | 0.23 |
| B21 | 0.189 |
| B22 | 0.224 |
| B23 | -0.0416 |
| B24 | 0.422 |
| B25 | -0.302 |
| B26 | 0.272 |
| B27 | 0.285 |
| B28 | -0.192 |
| B29 | -0.00382 |
